Results from the RNAGym collection of RNA variant scans (doi:10.7554/elife.90254).
The source gives no read counts; variants with many changes may rest on few reads.

B1: LINE1-mini (parent)
chain: GGCAGAGCUCAACACAGCGUGGCAAAGUGGCUGUGGCUAGACUGCC

Variants of: B1
Assay: self-cleavage, relative activity (ratio to wild type); higher = more cleavage; in vitro, sequencing; the parent is a self-cleaving ribozyme

Variant	self-cleavage
GGCAGAGCUCUGCACAGCAUACCAACGUGGCUGUGGCUAGACUGCC [A11U A12G G19A G21A G22C A26C]	0
GGCAUAGCUCAACACAGCAUGGCAUAGUGGCCUUGGCUAGACUGCU [G5U G19A A25U U32C G33U C46U]	0.12
GGCAGGGCUCAACACAGCGUGGCAAAGUGUCUGUGGCUAGACUGGC [A6G G30U C45G]	0.04
UGCAGAGCUCAACACAGCGUGGCAAAGUGGUUGUGGCUAGACUCCC [G1U C31U G44C]	0.08
GGAAGAGCUCACCACAGCGUGGCAAAGUGGCUGUGGCUAGACUGAC [C3A A12C C45A]	0.02
GGCAGAGCUCAACACAGCGUGGCAAAGUGGCUGUGACUAUACCGCC [G36A G40U U43C]	0.28
GGCAGAGCUCAACACAGCGUGGCAAAGGGGCUGCGGCUAGAAUGCC [U28G U34C C42A]	0.04
GGCACAGCUCAACACAGCGUGGCAAAUUGGCUGUGGACAUACUGCG [G5C G27U C37A U38C G40U C46G]	0.03
GGAAGAGCACAACACCGCGUGGCAAAGUGCCUGUGGUUAGACUGCC [C3A U9A A16C G30C C37U]	0.55
GGGAGACCUCAACACAGCGUGGCAAAGUGGCUGUGGCUCGACUGCU [C3G G7C A39C C46U]	0.17
AGCAGAGCUUAACACAGCGUGGCAAAGUGGCUGUGGCGAGACUGCC [G1A C10U U38G]	0.11
GGCAGGGUUCAACACAGCGUGGCAAAGUGGCUUUCGUUAGACUGCC [A6G C8U G33U G35C C37U]	0.03
GGCCGAGCUCAACACAGCGUGGCAAAGUGGCUGUGCCUAGCCUGCC [A4C G36C A41C]	0.04
GGCAGAGUCCAACACAGCGUGGCAAAGUGGCUGUGGCUAUACUGCC [C8U U9C G40U]	0.03
GGCAGAGCUCAACACGGCGUGGCAAGCUGGCUGUGGCUAGACUGCC [A16G A26G G27C]	0
GGCCGAGCUCAACACAGAGUUGCAAAGUGGCUGUGGCUAGACUGCC [A4C C18A G21U]	0.06
GGCAGAACCCACCACAGCGUGGCAUGGUAGCUGUGGCUAGACUGCC [G7A U9C A12C A25U A26G G29A]	0.01
GCCAGAGCUCAACACAGCGUGGCAAAGUGGCUGUAGCUAGACUGCG [G2C G35A C46G]	0.15
GGCAGAGCGCAACACAGCGUGGCUAAGUGGGCGUGGCUAGACUGCC [U9G A24U C31G U32C]	0.04

Variant	self-cleavage
GGCAGAGCUCAACACAGCGGGGCACAGAGACUGUGGCUAGUCUGCC [U20G A25C U28A G30A A41U]	0.05
GGCAGAGCUCAACAGAGUGUGGCAAAGUGGCAGUGGAUAGAGUGCC [C15G C18U U32A C37A C42G]	0.01
GGCAGAACUUAACACAGCGUGGCAAAGUGGCUGUGGUUAGACUGCC [G7A C10U C37U]	0.02
GUAAGAGCUAAACACAGCGUGGCAAAGUGGCUGUGGCUAGACUGCC [G2U C3A C10A]	0.03
GGCAGAGUUAAACACAGCGUGGCAAAGUGGUUGUGGCUAGACUCCC [C8U C10A C31U G44C]	0.03
GGCAGAGCUCAACACAGCAUGGCAAUGUGGCUGGGGCUAGACUGCC [G19A A26U U34G]	0.39
GACAGAGCUCAACACAGCGUGGCAAAGUGGUUGUGGCAAGACUGCC [G2A C31U U38A]	0.08
GGCAGAGCUGAACACAGCGUGCGAAAGUGGCUGUCGCUAGACUGCC [C10G G22C C23G G35C]	0
GGCCGAGGUCAACACAGUGUGGCAAAUUGGCUGUGGCUAGACUGCC [A4C C8G C18U G27U]	0.03
GGCAGGGUCCAACACAGCGUGGCAAAGUGGCUGUGGCUAGACUGCC [A6G C8U U9C]	0.06
GGCAUAGCUCAACACACCGCGGCAAAGUGGCUGUGGCUAGACUGCC [G5U G17C U20C]	0.05
GGCAGAGCUCGACACAACGUUUCAAAGUGGCUGUGGCUAGACUGCC [A11G G17A G21U G22U]	0.02
GGCAGAGCGUAACAAAGCGUGGAAAAGUGGGUGUUCCUAGACUGCC [U9G C10U C15A C23A C31G G35U G36C]	0.07
GGCAGAGCUCAACACAGCGUGGCAAAGUGGCUAUGGCUACAUUGCC [G33A G40C C42U]	0.08
GGCAGAGCUCAACAUAACGUGGCAAAGUGGCUGUGGCUAGCCUGCC [C15U G17A A41C]	0.06
GGGAAAGCUCAACACAGCGUCACAAAGUGGCUGUCGCUAGACUGCC [C3G G5A G21C G22A G35C]	0.08
GGAAGAGCUCAACAAAGCGUGGCAAAGUGGCUGUAGCUAGAGUUCC [C3A C15A G35A C42G G44U]	0.01
GGCAAAGCUCAACACAGCGUGGCAAAGUGGGUGUGGCUAGUCUGCU [G5A C31G A41U C46U]	0.05
GGCAGAGAUCAACACAGCGUGGCAUAUUGGCUGUGGCUACACUGCC [C8A A25U G27U G40C]	0.37

Variant	self-cleavage
GGCAGAGCUCAACGCAGCGUGGCAAAGUGGCGGUGGUUAGACUGCC [A14G U32G C37U]	0.02
GGCAGAGCACAAUCCAGCGUGGCAAAGUGGCUGUGGCUAGACUGCC [U9A C13U A14C]	0.18
GGCAGAGCUUAACACAGCGUGGCAAAGUGGGUGUGGCUAGACCGCC [C10U C31G U43C]	0.01
GGCAGAGCUCAACACAGCAUACCAAAGUGGCUGUAGCUAGACUGCC [G19A G21A G22C G35A]	0.1
GGCAGAGCUCAACGUAGCGUUGCAAAGUGGCUGUGGCUAGACCGGC [A14G C15U G21U U43C C45G]	0.03
GGCAAAGCUCAACACAGCGUGGCAAAGUGGUUUUGGCUAGACUGCC [G5A C31U G33U]	0.04
GGCAGAGCUCAACACAGUGUGGCAAAGUGGCUGUGGGCAGACUGCC [C18U C37G U38C]	0.01
GGCAGAGCUCAACACAGCGUGGCAAAGUGGCUGUGGCUAGAAUAUC [C42A G44A C45U]	0.07
CGCAGAACUCAACAUAGCAUGGCAAAGUGGCUGUGGCUAGAUUGCC [G1C G7A C15U G19A C42U]	0.32
GGCAGAGCUCCAUACAGCGUGGCAAAGUGUCUGUGGCUAGACUGCU [A11C C13U G30U C46U]	0.15
GGCAGAGCUCAACACUGCGUGGAAAAGUGGCUGUGGCUGGACUUCC [A16U C23A A39G G44U]	0.1
GACAGAGCUCAACACAGCGUUGCUAAGUGGCUGUGGCCAUACUGCC [G2A G21U A24U U38C G40U]	0.23
GGCAGAGCUCAACACAGCGUGGCAAAGUGCCUGUGACUAGGCUGCC [G30C G36A A41G]	0.12
GGCCGAGCUCAAAACACCGUGGCAAAGUGGCUGUGGCUAGACAGCC [A4C C13A G17C U43A]	0.01
GGCAGAGCUCAACACAGUGUGGCUAAGUGGCUGGGACUAGACUGUC [C18U A24U U34G G36A C45U]	0.03
GGCAGAGAUCAACACGGCGUGGCAAAGUGGCUGUGGCUAGACUGCA [C8A A16G C46A]	0.04
GGCAGUGUUCACAAAAGCGUGGCAAAGUGGCUGUGGCUAGACUACC [A6U C8U A12C C13A C15A G44A]	0.24
GGCAGAGUUUAACACAGCGUGGCAAAGUGACUGUGGCUAGACUGCC [C8U C10U G30A]	0.07
